Experimental data: article PMC6704089
These are yes or no findings as the source states them, for the method shown. Binding seen in cells or lysates may run through a third protein. Some entries that bind do so weakly or less than the wild type. Tags and fused reporters may be left off the sequences shown.

Legend:
[1] = target: T1, FLAG-UBP13 (Arabidopsis thaliana) (UniProt Q84WU2); experiment: co-IP; anti-FLAG M2 magnetic beads on extracts of N. benthamiana leaves co-expressing FLAG-UBP12 or FLAG-UBP13 with HA-GI, with or without Myc-ZTL; western blotting
T1 sequence: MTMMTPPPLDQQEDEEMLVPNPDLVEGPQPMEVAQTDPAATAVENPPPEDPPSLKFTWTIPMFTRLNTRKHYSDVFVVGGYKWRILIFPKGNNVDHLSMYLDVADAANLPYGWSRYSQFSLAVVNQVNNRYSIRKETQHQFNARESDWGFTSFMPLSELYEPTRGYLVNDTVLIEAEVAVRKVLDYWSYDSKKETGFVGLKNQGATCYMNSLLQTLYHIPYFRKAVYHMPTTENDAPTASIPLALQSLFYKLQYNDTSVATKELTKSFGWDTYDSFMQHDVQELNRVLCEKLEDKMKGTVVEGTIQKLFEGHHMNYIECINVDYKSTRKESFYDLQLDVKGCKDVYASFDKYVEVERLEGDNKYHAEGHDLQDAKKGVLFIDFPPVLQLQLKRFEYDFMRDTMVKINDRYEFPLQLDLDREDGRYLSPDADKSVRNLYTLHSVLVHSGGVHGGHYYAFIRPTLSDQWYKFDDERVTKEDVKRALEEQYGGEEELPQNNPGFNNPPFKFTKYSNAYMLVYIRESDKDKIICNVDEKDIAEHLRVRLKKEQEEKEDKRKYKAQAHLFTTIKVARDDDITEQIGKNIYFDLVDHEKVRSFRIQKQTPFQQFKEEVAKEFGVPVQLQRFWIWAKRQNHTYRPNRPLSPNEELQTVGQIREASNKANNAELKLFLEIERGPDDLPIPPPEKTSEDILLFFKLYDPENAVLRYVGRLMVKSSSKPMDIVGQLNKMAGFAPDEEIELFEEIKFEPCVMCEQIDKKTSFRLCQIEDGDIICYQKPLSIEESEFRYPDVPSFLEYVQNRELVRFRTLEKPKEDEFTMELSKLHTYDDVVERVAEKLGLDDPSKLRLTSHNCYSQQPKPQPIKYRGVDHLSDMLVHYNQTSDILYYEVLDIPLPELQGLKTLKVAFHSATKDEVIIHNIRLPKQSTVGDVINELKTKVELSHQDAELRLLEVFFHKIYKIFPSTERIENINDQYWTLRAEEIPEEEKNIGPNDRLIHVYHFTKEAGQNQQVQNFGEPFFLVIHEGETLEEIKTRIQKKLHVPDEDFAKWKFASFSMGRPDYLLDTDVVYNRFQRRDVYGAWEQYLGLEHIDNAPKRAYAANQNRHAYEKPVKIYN

[2] = target: T2, FLAG-UBP12 (Arabidopsis thaliana) (UniProt Q9FPT1); experiment: as above
T2 sequence: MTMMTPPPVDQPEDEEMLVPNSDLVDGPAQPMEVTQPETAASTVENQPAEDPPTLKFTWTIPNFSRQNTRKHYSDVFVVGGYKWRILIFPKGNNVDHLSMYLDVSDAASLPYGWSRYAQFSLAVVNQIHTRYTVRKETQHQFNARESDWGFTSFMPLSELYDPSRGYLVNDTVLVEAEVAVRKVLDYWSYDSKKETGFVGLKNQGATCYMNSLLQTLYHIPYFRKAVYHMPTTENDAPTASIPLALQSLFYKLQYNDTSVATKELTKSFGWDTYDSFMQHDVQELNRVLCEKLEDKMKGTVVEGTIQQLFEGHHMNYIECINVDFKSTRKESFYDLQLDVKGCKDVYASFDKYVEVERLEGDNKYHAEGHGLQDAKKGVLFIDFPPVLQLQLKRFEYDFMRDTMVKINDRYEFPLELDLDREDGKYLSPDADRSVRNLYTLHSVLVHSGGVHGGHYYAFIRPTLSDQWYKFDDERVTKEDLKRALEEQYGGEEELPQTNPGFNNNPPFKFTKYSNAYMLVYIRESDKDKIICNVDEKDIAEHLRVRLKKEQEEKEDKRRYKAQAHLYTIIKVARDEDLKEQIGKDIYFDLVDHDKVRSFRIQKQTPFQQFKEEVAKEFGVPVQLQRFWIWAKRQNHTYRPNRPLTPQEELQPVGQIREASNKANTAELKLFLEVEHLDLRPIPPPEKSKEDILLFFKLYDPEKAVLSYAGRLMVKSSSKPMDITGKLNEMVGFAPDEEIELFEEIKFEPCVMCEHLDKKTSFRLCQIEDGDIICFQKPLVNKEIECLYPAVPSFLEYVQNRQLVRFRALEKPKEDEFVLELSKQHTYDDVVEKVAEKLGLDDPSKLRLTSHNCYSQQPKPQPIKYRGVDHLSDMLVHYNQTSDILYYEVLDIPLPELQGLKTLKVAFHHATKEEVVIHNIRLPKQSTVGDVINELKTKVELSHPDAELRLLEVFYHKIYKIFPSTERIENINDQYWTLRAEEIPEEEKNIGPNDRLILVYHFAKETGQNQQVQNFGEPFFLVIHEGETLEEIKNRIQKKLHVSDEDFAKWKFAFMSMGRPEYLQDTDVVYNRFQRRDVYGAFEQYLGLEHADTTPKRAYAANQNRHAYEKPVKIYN

B1: HA-GI (protein, UniProt Q9SQI2 1-1173)
chain: MASSSSSERWIDGLQFSSLLWPPPRDPQQHKDQVVAYVEYFGQFTSEQFPDDIAELVRHQYPSTEKRLLDDVLAMFVLHHPEHGHAVILPIISCLIDGSLVYSKEAHPFASFISLVCPSSENDYSEQWALACGEILRILTHYNRPIYKTEQQNGDTERNCLSKATTSGSPTSEPKAGSPTQHERKPLRPLSPWISDILLAAPLGIRSDYFRWCSGVMGKYAAGELKPPTIASRGSGKHPQLMPSTPRWAVANGAGVILSVCDDEVARYETATLTAVAVPALLLPPPTTSLDEHLVAGLPALEPYARLFHRYYAIATPSATQRLLLGLLEAPPSWAPDALDAAVQLVELLRAAEDYASGVRLPRNWMHLHFLRAIGIAMSMRAGVAADAAAALLFRILSQPALLFPPLSQVEGVEIQHAPIGGYSSNYRKQIEVPAAEATIEATAQGIASMLCAHGPEVEWRICTIWEAAYGLIPLNSSAVDLPEIIVATPLQPPILSWNLYIPLLKVLEYLPRGSPSEACLMKIFVATVETILSRTFPPESSRELTRKARSSFTTRSATKNLAMSELRAMVHALFLESCAGVELASRLLFVVLTVCVSHEAQSSGSKRPRSEYASTTENIEANQPVSNNQTANRKSRNVKGQGPVAAFDSYVLAAVCALACEVQLYPMISGGGNFSNSAVAGTITKPVKINGSSKEYGAGIDSAISHTRRILAILEALFSLKPSSVGTPWSYSSSEIVAAAMVAAHISELFRRSKALTHALSGLMRCKWDKEIHKRASSLYNLIDVHSKVVASIVDKAEPLEAYLKNTPVQKDSVTCLNWKQENTCASTTCFDTAVTSASRTEMNPRGNHKYARHSDEGSGRPSEKGIKDFLLDASDLANFLTADRLAGFYCGTQKLLRSVLAEKPELSFSVVSLLWHKLIAAPEIQPTAESTSAQQGWRQVVDALCNVVSATPAKAAAAVVLQAERELQPWIAKDDEEGQKMWKINQRIVKVLVELMRNHDRPESLVILASASDLLLRATDGMLVDGEACTLPQLELLEATARAIQPVLAWGPSGLAVVDGLSNLLKCRLPATIRCLSHPSAHVRALSTSVLRDIMNQSSIPIKVTPKLPTTEKNGMNSPSYRFFNAASIDWKADIQNCLNWEAHSLLSTTMPTQFLDTAARELGCTISLSQ
For B1, the binding [1] was “binds” and the binding [2] was “binds”.
